# Inconclusive results, whose numbers are uncertain, are shown with a selection of clear calls. For some of these results: Potencies of inconclusive entries are left out as doubtful fits. The source made the active and inactive calls. Unless noted, calls follow the shape of the dose curve; as a rule, active = well fitted curve in the direction sought with a large enough effect; inconclusive = small, poorly fitted or top-dose-only effect, or another doubt; inactive = no such curve, though single readings can be large; an effect the other way counts as inactive or inconclusive.
# How the values were obtained:
# [1] = target: Cytochrome P450 2D6 (Homo sapiens) (UniProt P10635); test: Cytochrome P450 family 2 subfamily D member 6 (CYP2D6) small molecule antagonists: luciferase biochemical (cell-free) qHTS assay (AID 1645840; active = well fitted curve in the direction sought with a large enough effect in the repeat runs; inconclusive = weak or mixed curves; inactive = no such curve, though single readings can be large; an effect the other way counts as inactive or inconclusive; also: potency is read from the fitted curve at half-maximal effect; nearly all actives have a fitted effect of over 55% in size)
# Sequence of UniProt P10635 (P10635 whole entry, looked up): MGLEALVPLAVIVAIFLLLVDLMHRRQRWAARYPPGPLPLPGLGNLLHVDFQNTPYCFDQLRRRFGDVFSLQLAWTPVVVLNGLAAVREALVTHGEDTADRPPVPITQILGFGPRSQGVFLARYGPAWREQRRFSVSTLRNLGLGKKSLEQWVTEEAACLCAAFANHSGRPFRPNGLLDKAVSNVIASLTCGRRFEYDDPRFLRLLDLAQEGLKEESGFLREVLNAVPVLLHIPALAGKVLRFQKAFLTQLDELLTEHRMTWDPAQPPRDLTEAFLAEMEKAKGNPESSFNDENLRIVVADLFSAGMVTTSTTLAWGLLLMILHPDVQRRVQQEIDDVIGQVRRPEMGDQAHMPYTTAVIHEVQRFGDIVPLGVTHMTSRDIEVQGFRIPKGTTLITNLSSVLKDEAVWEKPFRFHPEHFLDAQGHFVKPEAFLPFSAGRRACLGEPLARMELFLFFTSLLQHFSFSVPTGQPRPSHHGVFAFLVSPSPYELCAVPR
# In short: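 P450-Glo luminescent screen: recombinant CYP2D6 enzyme–proluciferin substrate mix preincubated with compound 10 min at room temperature, then NADPH regeneration added for 1 h at room temperature. Detection reagent added for 20 min; luciferin light read as relative luminescence units.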
# [2] = tested on: NIH3T3; test: Cytotoxic Profiling of Annotated Libraries Using Quantitative High-Throughput Screening (AID 1296008); conditions: Five cell lines viability, CellTiter-Glo ATP luminescence, 48-72 h; max response: hits give low values; also: nearly all actives have a fitted effect of over 60% in size; also: potency is read from the fitted curve at half-maximal effect; as to max response: % is scaled to controls: 0 for no effect and ±100 for the full control effect
# In short: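 Compounds were pin-transferred onto cells and incubated 48 or 72 hr at 37 degree Celsius, 95% humidity. CellTiter-Glo was added, plates sat 10 min at room temperature, then ATP-coupled luminescence was imaged as the viability read-out.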
# [3] = tested on: CAOV3; test: Primary qHTS to identify gynecologic anti-cancer compounds using libraries of approved drugs and bioactive compounds (AID 1345084); conditions: Gynecologic cancer cell panel viability, ATPlite luminescence, 48 h; activity change, negative = cytotoxicity: at 57.5 µM (top of the series); also: nearly all actives have a fitted effect of over 55% in size; also: potency is read from the fitted curve at half-maximal effect; as to activity change, negative = cytotoxicity: % is scaled to controls: 0 for no effect and ±100 for the full control effect
# In short: (§1)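 Five-point cytotoxicity, 48 h drug exposure at 37 C, 5% CO2, on cells seeded 16 h beforehand. ATP content read by ATPlite luminescence.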
# [4] = P-glycoprotein substrates identified in KB-8-5-11 adenocarcinoma cell line, qHTS therapeutic library screen (AID 1346987); also: nearly all actives have a fitted effect of over 65% in size; also: potency is read from the fitted curve at half-maximal effect
# In short: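 KB-8-5-11: colchicine-selected sub-line of KB-3-1 over-expressing P-gp; assay medium lacked colchicine. 72 h drug exposure at 37 degree C, CellTiter-Glo.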
# [5] = Primary redox qHTS assay for identification of artifact compounds. (AID 1845223); conditions: Amplex Red/HRP redox cycling with DTT, fluorescence; redox activity (% of DA3003): at 53.8 µM (top of the series); also: potency is read from the fitted curve at half-maximal effect;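 as to redox activity (% of DA3003): 0% = DMSO and 100% = reference compound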
# In short: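 Amplex Red (25 uM) and HRP (250 mU/mL) in HBSS, with compounds for 15 min, then 250 uM DTT for 30 min, room temperature, dark. Fluorescence 525/598 nm read; normalized to DMSO and 10 uM DA3003; Hill fit.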
# [6] = tested on: HeLa; test: Primary qHTS to identify gynecologic anti-cancer compounds using libraries of approved drugs and bioactive compounds (AID 1345084); conditions: Gynecologic cancer cell panel viability, ATPlite luminescence, 48 h; activity change, negative = cytotoxicity: at 57.5 µM (top of the series); also: nearly all actives have a fitted effect of over 55% in size; also: potency is read from the fitted curve at half-maximal effect; as to activity change, negative = cytotoxicity: % is scaled to controls: 0 for no effect and ±100 for the full control effect
# In short: as §1
# [7] = tested on: Hek293T; test: as above; conditions: Gynecologic cancer cell panel viability, ATPlite luminescence, 48 h, control line for the selectivity index; activity change, negative = cytotoxicity: at 57.5 µM (top of the series) unless noted
# In short: as §1
# [8] = tested on: PA-1; test: as above; conditions: Gynecologic cancer cell panel viability, ATPlite luminescence, 48 h; series mostly up to 57.5 µM
# In short: as §1
# [9] = Primary qHTS for inhibitors of nuclear receptor binding SET domain protein 2 (NSD2) in an RCH-ACV wild type WT cells (2C) (AID 1645877); conditions: activity change, negative = cell killing: at 44.9 µM (top of the series) unless noted; also: nearly all actives have a fitted effect of over 70% in size; also: potency is read from the fitted curve at half-maximal effect
# [10] = Primary fluorescence-based thiol-reactive (MSTI) qHTS assay for identification of artifact compounds. (AID 1845221); also: potency is read from the fitted curve at half-maximal effect;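 also: thiol-reactive compounds lower the probe fluorescence signal; nearly all actives have a fitted effect of over 65% in size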
# In short: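 Thiol-reactive compounds detected by quenching of 4 uM MSTI fluorescence (525/598 nm) after 1 h room-temperature dark incubation in PBS pH 7.4, 2% DMSO. qHTS titration; percent inhibition Hill-fitted against Acetyl-MSTI/MSTI controls.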
# [11] = tested on: Es-2; test: Primary qHTS to identify gynecologic anti-cancer compounds using libraries of approved drugs and bioactive compounds (AID 1345084); conditions: Gynecologic cancer cell panel viability, ATPlite luminescence, 48 h; series mostly up to 57.5 µM; also: nearly all actives have a fitted effect of over 55% in size; also: potency is read from the fitted curve at half-maximal effect
# In short: as §1
# [12] = tested on: Tov-21-G; test: as above; conditions: Gynecologic cancer cell panel viability, ATPlite luminescence, 48 h; activity change, negative = cytotoxicity: at 57.5 µM (top of the series) unless noted
# In short: as §1
# [13] = tested on: Zika virus NS2B-NS3 protease (unlinked complex); test: Primary screen GU Rhodamine qHTS for Zika virus inhibitors: Unlinked NS2B-NS3 protease assay (AID 1347159); also: nearly all actives have a fitted effect of over 60% in size; also: potency is read from the fitted curve at half-maximal effect
# In short: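 Noncovalent NS2B hydrophilic domain/NS3 protease complex (25 nM final) in 10 mM Tris-HCl pH 8.0, 0.01% Tween 20, preincubated 15 min with compounds (up to 114 microM), then 1.5 microM Rhodamine110 substrate. Fluorescence change over 15 min fitted to 4-parameter Hill.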
# [14] = tested on: CASKI; test: Primary qHTS to identify gynecologic anti-cancer compounds using libraries of approved drugs and bioactive compounds (AID 1345084); conditions: Gynecologic cancer cell panel viability, ATPlite luminescence, 48 h; series mostly up to 57.5 µM; also: nearly all actives have a fitted effect of over 55% in size; also: potency is read from the fitted curve at half-maximal effect
# In short: as §1
# [15] = Primary qHTS for inhibitors of nuclear receptor binding SET domain protein 2 (NSD2) in an isogenic RCH-ACV NSD2 p.E1099K mutant (9B) (AID 1645876); also: nearly all actives have a fitted effect of over 70% in size; also: potency is read from the fitted curve at half-maximal effect
# [16] = tested on: SKOV3; test: Primary qHTS to identify gynecologic anti-cancer compounds using libraries of approved drugs and bioactive compounds (AID 1345084); conditions: Gynecologic cancer cell panel viability, ATPlite luminescence, 48 h; series mostly up to 57.5 µM; also: nearly all actives have a fitted effect of over 55% in size; also: potency is read from the fitted curve at half-maximal effect
# In short: as §1
# [17] = tested on: OV90; test: as above; conditions: Gynecologic cancer cell panel viability, ATPlite luminescence, 48 h; series mostly up to 57.5 µM
# In short: as §1
# [18] = Primary qHTS for small molecule stabilizers of the endoplasmic reticulum resident proteome: Secreted ER Calcium Modulated Protein (SERCaMP) assay (AID 1508630); conditions: SH-SY5Y GLuc-SERCaMP (Gaussia luciferase released on ER calcium loss) secretion, thapsigargin, luminescence; activity change, negative = inhibition: at 38.4 µM (top of the series) unless noted; also: % is scaled to controls: 0 for no effect and ±100 for the full control effect
# In short: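 GLuc-SERCaMP-expressing SH-SY5Y cells, pretreated 16 h with compound, are challenged with thapsigargin to empty ER calcium stores; after 4 h, coelenterazine is added directly to the medium and luminescence is imaged.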
# Tags tell the direction and shape of the fitted curve.
smiles,measurement,setting,value
CN(C)C(=O)NC1CCC(CCN2CCN(c3cccc(Cl)c3Cl)CC2)CC1 (stereo not given),Potency,[1],active: 12 µM
same,max response,[2],inactive: -6.34%
same,Potency,[3],"inconclusive [rising, partial curve, poor fit]"
Cc1cc2c(F)c(Oc3ncnn4cc(OCC(C)O)c(C)c34)ccc2[nH]1 (stereo not given),Potency,[4],"inconclusive [inhibitor, single point]"
same,Potency,[1],"inconclusive [inhibitor, single point]"
same,Potency,[5],"inconclusive [activator, partial curve]"
same,Potency,[2],"inconclusive [inhibitor, single point]"
same,Potency,[6],"inconclusive [cytotoxic, single point]"
same,Potency,[7],"inconclusive [cytotoxic, partial curve]"
same,Potency,[8],"inconclusive [cytotoxic, single point]"
C=C1C(=O)OC2/C=C(\CO)CC/C=C(\C=O)C(OC)C(OC(=O)C(C)CC)C12 (stereo not given),Potency,[9],active: 5.02 µM
same,Potency,[10],active: 4.12 µM
same,Potency,[2],"inconclusive [inhibitor, single point]"
same,Potency,[11],inactive
same,Potency,[12],"inconclusive [cytotoxic, single point]"
FC(F)(F)c1ccccc1-c1cc(C(F)(F)F)c2nc(C3=NOC4(CCCCC4)C3)[nH]c2c1,Potency,[4],"inconclusive [inhibitor, partial curve]"
same,Potency,[13],"inconclusive [inhibitor, partial curve]"
same,Potency,[2],"inconclusive [inhibitor, partial curve, poor fit]"
same,Potency,[14],"inconclusive [cytotoxic, single point]"
CC1CC(C(O)C(C)(C)O)OC2CC3(C)C4(C)CCC5C(C)(C)C(=O)CCC5(C)C4CCC3(O)C12O (stereo not given),Potency,[13],inactive
same,Potency,[15],inactive
same,Potency,[9],inactive
same,max response,[2],inactive: 2.04%
same,Potency,[14],inactive
C=C1/C(=C/C=C2\CCC[C@]3(C)[C@@H]([C@H](C)/C=C/[C@H](O)C4CC4)CC[C@@H]23)C[C@@H](O)C[C@@H]1O,Potency,[13],active: 50.1 µM
same,Potency,[15],"inconclusive [inhibitor, single point]"
same,Potency,[9],"inconclusive [inhibitor, single point]"
same,Potency,[5],"inconclusive [activator, partial curve, poor fit]"
same,Potency,[2],"inconclusive [inhibitor, full curve]"
same,Potency,[14],inactive
same,Potency,[16],inactive
C/C=C/C=C/C=C/C(=O)O[C@@H]1C=C(CO)[C@](O)(CO)[C@@]2(C)CCCC(C)(C)[C@H]12,Potency,[13],"inconclusive [inhibitor, partial curve]"
same,Potency,[15],"inconclusive [inhibitor, single point]"
same,Potency,[9],"inconclusive [inhibitor, single point]"
same,outcome,[2],inactive
same,Potency,[7],inactive
same,Potency,[16],"inconclusive [cytotoxic, partial curve, poor fit]"
COC(=O)C1(Cc2ccc(O)cc2)OC(=O)C(OC)=C1c1ccc(O)cc1 (stereo not given),Potency,[4],inactive
same,Potency,[15],inactive
same,outcome,[2],inactive
same,Potency,[3],inactive
same,Potency,[12],inactive
O=C(O)CCc1cc2ccoc2cc1O[C@@H]1O[C@H](CO)[C@@H](O)[C@H](O)[C@H]1O,Potency,[4],inactive
same,Potency,[5],inactive
same,outcome,[2],inactive
same,Potency,[14],"inconclusive [rising, partial curve, poor fit]"
same,Potency,[8],"inconclusive [rising, partial curve, poor fit]"
CCOc1ccc(-c2ccc(Cn3c(CC(C)(C)C(=O)O)c(SC(C)(C)C)c4cc(OCc5ccc(C)cn5)ccc43)cc2)cn1,Potency,[15],inactive
same,Potency,[9],inactive
same,Potency,[10],inactive
same,Potency,[2],"inconclusive [inhibitor, partial curve, poor fit]"
same,Potency,[11],inactive
same,Potency,[17],"inconclusive [cytotoxic, single point]"
O=C(O)CN1C(=O)c2cccc3cccc(c23)C1=O,Potency,[18],inactive
same,max response,[2],inactive: 0.928%
same,Potency,[14],inactive
same,Potency,[12],inactive
COC(=O)C(C)C1CCC2(C)C(=O)C=CC(C)(O)C2C1O (stereo not given),Potency,[13],"inconclusive [inhibitor, partial curve]"
same,Potency,[9],inactive
same,Potency,[10],"inconclusive [inhibitor, partial curve]"
same,Potency,[5],inactive
same,max response,[2],inactive: 2.97%
same,Potency,[6],inactive
same,Potency,[16],"inconclusive [cytotoxic, single point]"
C=C(COC(=O)CC(C)C)C1Cc2cc(C(C)=O)ccc2O1 (stereo not given),Potency,[4],inactive
same,Potency,[13],"inconclusive [inhibitor, partial curve, poor fit]"
same,Potency,[15],inactive
same,Potency,[5],"inconclusive [activator, partial curve, poor fit]"
same,outcome,[2],inactive
same,Potency,[11],inactive

# — PubChem BioAssay (NCATS)
